The whole screen tested about 150,000 compounds, of which about 540 (0.36%) showed an effect of 50% or more. This is one part of the list.

In this assay the test system is Plasmodium falciparum. The assay can be described thus: Primary screen in NF54 nanoGlo assay, in single point, at 2uM, 72h; a lower Z score goes with more inhibition. It is filed as functional, Erythrocyte. The settings on record: timepoint 72 hour.
For `Cc1cnc(C)n1CCC1CCN(C(=O)C2CCOCC2)CC1`, the “% Inhibition” value was determined as 1% and the Z score was -0.07.
`Cc1ccc(C)c(OCCN[C@H]2CCCNC2)c1`: the “% Inhibition” value is recorded as -3% and the Z score was 0.25.
The matching figures for `CC(C)(C(=O)Cn1c(=O)[nH]cc(C#N)c1=O)c1ccccc1`: -18% and 2.5.
The matching figures for `CCn1cc(CN2CC[C@]3(CO)CN(Cc4ccccc4)C[C@@H]3C2)c(C)n1`: 6% and -1.1.
For `CN1CCCCc2c1nc1ccccc1c2N`, in that order: -5% and 0.65.
With `Cc1nc2ccc(NC(=O)N3CCCC[C@@H]3C)cc2s1`, the “% Inhibition” value was 17% and the Z score is -3.18.
For the compound `C[C@H]1CN(C)CCN1C(=O)c1ccc2c(c1)OCCCO2`, the “% Inhibition” value is listed as -13% and the Z score came out at 1.2.
On to `C[C@]1(O)c2cc(F)ccc2-n2ccnc21`, for which the “% Inhibition” value is reported as -3% and the Z score is given as 0.54.
The matching figures for `CC[C@@](C)(CC(=O)OC)NC(=O)c1ccccc1C`: -1% and 0.08.
Regarding `O=C(NCc1cccnc1)[C@H]1CCCN(c2nccn3nc(-c4ccccc4Cl)cc23)C1`, the “% Inhibition” value is given as -5% and the Z score is 0.54.
Regarding `CN(CCn1ccc(=O)c2sccc21)Cc1ccc(F)cc1`, the “% Inhibition” value is on record as -12% and the Z score is reported as 1.36.
For `COc1cc(C(C)NC2CCc3nc(C)cn3C2)ccc1F` (stereo not given), the “% Inhibition” value was 17% and the Z score is -2.24.
For `CC1CC1C(=O)N1CCCC1c1nnc2ccccn12` (stereo not given), in that order: -2% and 0.39.
Consider `COCC1(C2CCC2)CN(C(=O)N[C@H](C)C2CCCc3ccccc32)C1` (stereo not given in full), for which the “% Inhibition” value was -11% and the Z score was found to be 2.12.
For `COc1ccc(Cl)cc1C(O)CNC(=O)[C@@H]1CCCC[C@@H]1N1CCCC1=O` (stereo not given in full), in that order: -2% and 0.22.
For the compound `COC(=O)C1=C(C(=O)OC)SC(=C2C(=S)C(C)(C)N(C(=O)Cc3ccccc3)c3cc(C)ccc32)S1`, the “% Inhibition” value stood at 10% and the Z score is on record as -1.69.
For `CCc1nc(C[C@H]2CN(C(=O)Nc3ccc(OC)nc3OC)CCO2)no1`, in that order: -10% and 1.33.
For `CC(C)(CNC(=O)CN1CCC(C(F)(F)F)CC1)NS(C)(=O)=O`, in that order: 7% and -1.02.
As to `CCN(C)c1cccc(NC(=O)NC[C@H](O)C(C)C)c1`, the “% Inhibition” value turned out to be 32% and the Z score is reported as -3.64.
For `Cc1cc(C(=O)N[C@H]2CN(C(=O)c3cc(C)oc3C)C[C@@H]2C2CC2)no1`, in that order: 9% and -0.89.
`N#Cc1ccccc1N1CCN2c3ccc(C(F)(F)F)cc3CC(C(=O)NCC3CC3)C2C1` (stereo not given): the “% Inhibition” value worked out at 0% and the Z score was -0.07.
The matching figures for `Cc1cccc(NC(=O)Cn2cc(-c3ccccc3)c3ncn(C4CC4)c(=O)c32)c1C`: -7% and 1.
Regarding `O=C(N1CCC(OC2CCCCC2)CC1)[C@]1(O)CCOC1`, the “% Inhibition” value was -8% and the Z score turned out to be 0.7.
For `CNc1ncccc1C(=O)NC[C@H]1CCCN(Cc2c[nH]cn2)C1`, in that order: -5% and 0.97.
On to `CCC(CC)N(C(=O)c1oc(C)nc1C)[C@H]1CCCc2cccnc21`, for which the “% Inhibition” value is reported as 1% and the Z score is -0.17.
The matching figures for `COc1ccc(C(N)=NOCC(=O)NCCc2ccccc2)cc1`: -7% and 1.26.
The matching figures for `Cc1c(CCO)c(=O)n(C)n1C(=O)c1ccc(Cl)cc1`: 37% and -0.85.
Regarding `CC(C)c1nc(C(=O)NCc2ccc(F)cc2)c[nH]1`, the “% Inhibition” value amounted to 2% and the Z score is recorded as -0.32.
For `N#CC1(NC(=O)c2ccc3c(c2)OCCO3)CCCC1`, in that order: 9% and -1.19.
Consider `COc1ccc(Cl)cc1C(=O)N[C@@H]1CCCC[C@H]1S(C)(=O)=O`, for which the “% Inhibition” value is reported as -7% and the Z score is recorded as 0.79.
As for `CCN(CC)Cc1ccc2c(c1)CN(C(=O)c1ccc(C)nc1)CCO2`, the “% Inhibition” value was -14% and the Z score is 1.48.
The matching figures for `O=C(Nc1ccc2nccnc2c1)c1[nH]nc2c1CCCC2`: 9% and -1.22.
The matching figures for `C[C@H]1CN(c2ncc(Cl)cn2)CCN1S(C)(=O)=O`: 12% and -1.63.
Regarding `O=C(O)CCC(=O)Nc1sccc1C(=O)NC1CCCC1`, the “% Inhibition” value is given as 0% and the Z score is recorded as 0.08.
The matching figures for `COc1ccc(CN([C@@H](C)C2CC2)S(=O)(=O)c2cc3c(cc2Cl)OCCO3)cc1`: -9% and 1.62.
For `Cc1ccsc1CNC(=O)NC1CCCCC1CO` (stereo not given), in that order: 24% and -2.79.
The matching figures for `O=C(NC1CCc2cn[nH]c2C1)N1CC(O)CC1c1ccccc1` (stereo not given): -7% and 0.78.
As to `CN(C)c1cccc(C(=O)Nc2ccccc2-c2nc3ccccc3s2)c1`, the “% Inhibition” value was -4% and the Z score came to 0.5.
The matching figures for `CN(C(=O)c1cc(C#N)cn1C)c1c(F)cccc1C(N)=O`: -10% and 1.43.
The matching figures for `Cc1scc(C(=O)N[C@@](C)(Cn2cccn2)C(N)=O)c1C`: 6% and -1.19.
As for `CCOc1cc(N2CCN(C)CC2)ccc1NC(=O)c1ccc[nH]1`, the “% Inhibition” value is on record as -8% and the Z score is listed as 1.24.
Consider `CCCc1cc(=O)n(CC(=O)N2CCN(c3cc4c(nn3)CCC4)CC2)cn1`, for which the “% Inhibition” value was -9% and the Z score stood at 1.7.
The matching figures for `CS(=O)(=O)C1(C(=O)Nc2n[nH]c3ccc(F)cc23)CCC1`: -5% and 0.74.
Take `Cc1nn2c(CN3CCC(c4nnc5n4CCCC5)CC3)c(C(C)C)nc2s1`: the “% Inhibition” value is listed as -5% and the Z score is reported as 0.68.
The matching figures for `CCC1C(C)CCN1S(=O)(=O)c1csnc1C(=O)OC` (stereo not given): 2% and -0.23.
The matching figures for `O=C(N[C@H]1CC(=O)N(c2ccc(F)cc2)C1)c1ccco1`: -5% and 0.94.
For the compound `CCc1ccsc1CNCc1cc(C2CCNCC2)no1`, the “% Inhibition” value is -2% and the Z score is recorded as 0.38.
For `CCN=C(NCc1ccccc1CN1CCOCC1)NC1CC1`, the “% Inhibition” value was -6% and the Z score is given as 0.52.
The matching figures for `CC(C)CCC1CCN(C(=O)Cc2ccc(-n3cnnc3)cc2)CC1`: -12% and 2.01.
The matching figures for `Cc1ccc(C(=O)NC2CCC(F)C2)o1` (stereo not given): -5% and 0.47.
For `CCS(=O)(=O)C1CN(C(=O)[C@H]2CCCOC2)C1`, in that order: -7% and 1.44.
Regarding `CN(Cc1cnn(C)c1)C(=O)c1cc(S(=O)(=O)N2CCCCC2)ccc1N1CCCC1`, the “% Inhibition” value is -16% and the Z score stood at 1.82.
Consider `COc1ccc(OCCC(=O)OCC2CCN(C(=O)OC(C)(C)C)CC2)cc1`, for which the “% Inhibition” value is recorded as 0% and the Z score stood at 0.
The matching figures for `CC(C)c1ccc([C@@H]2CC(=O)c3c(nc4c(cnn4-c4ccc(Cl)cc4)c3N)C2)cc1`: 9% and -1.58.
For the compound `Cc1cccnc1Cn1ccnc1-c1ccoc1`, the “% Inhibition” value is given as -10% and the Z score came out at 1.84.

For the origin of these results see ChEMBL document CHEMBL4888484, “Replenishing the malaria drug discovery pipeline: Screening and hit evaluation of the MMV Hit Generation Library 1 (HGL1) against asexual blood stage Plasmodium falciparum ,using a nano luciferase reporter read-out” (2022).
